Experimental data reported in PubChem BioAssay AID1865 (National Center for Advancing Translational Sciences (NCATS), 2009).
Values joined by “and” are separate entries in the source; they are usually repeats but may differ in a detail not shown here. Identical values can stand only once. In all, about 280,000 compounds went through this assay and about 540 (0.19%) were called active. Inconclusive results, whose numbers are uncertain, are shown with a selection of clear calls. Calls follow the shape of the dose curve; as a rule, active = well fitted activation curve with a large enough effect; inconclusive = small, poorly fitted or top-dose-only effect; inactive = flat fitted curve, though single readings scatter. A potency beside an inconclusive call is a rough fit, not a confirmed value.

Assay: Quantitative High-Throughput Screen for Regulators of Epigenetic Control; also: nearly all actives have a fitted effect of over 60% in size
Settings: murine LDR cells, GFP reporter derepression, 30 h; series mostly up to 53.9 µM
Outline: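 Murine LDR cells bearing a silenced CMV-driven GFP reporter were exposed to compound for 30 h at 37 C. After PBS washes, GFP-positive cells (20-120 um objects) counted by laser-scanning microplate cytometry.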
Potency is read from the fitted curve at half-maximal effect; tags tell the direction and shape of the fitted curve.

| Compound | Potency |
| --- | --- |
| O=c1[nH]c(=O)n(Cc2ccccc2Cl)c(O)c1/C=C1/C=CC=N1 | inconclusive: 31.6 µM [activator, single point] |
| COC1C=CC23c4cc5c(cc4CN(CC2O)C3C1)OCO5 (stereo unspecified) | inconclusive: 31.6 µM [activator, single point] |
| CCCCCCn1c(O)c(C=NC2CCCCC2N)c(=O)[nH]c1=O (stereo unspecified) | inconclusive: 2 µM [activator, partial curve, poor fit] |
| COCCCn1c(=O)/c(=C\c2ccccc2OC(F)F)s/c1=C(/C#N)C(=O)NCCOC | inconclusive: 35.5 µM [activator, single point] |
| Cc1cc(C=C2C(=O)NC(=S)NC2=O)c(C)n1C1CCCC1 | inconclusive: 4.47 µM [activator, single point] |
| O=[N+]([O-])/C=C/c1c(OCc2ccccc2)ccc2ccccc12 | inconclusive: 5.62 µM [activator, single point] |
| COCCN1C(=O)NC(=O)/C(=C\c2ccc(Br)cc2)C1=O | inactive |
| C#CCN1C(=O)S/C(=C\c2ccc(N3CCOCC3)cc2C)C1=O | inconclusive: 25.1 µM [activator, single point] |
| CC(C)(c1ccc(OC[C@@H]2CO2)cc1)c1ccc(OC[C@H]2CO2)cc1 | inconclusive: 11.2 µM [activator, partial curve, poor fit] |
| CCN(CCNc1ccc([N+](=O)[O-])c2cccnc12)S(=O)(=O)c1ccc(Cl)cc1 | inconclusive: 35.5 µM [activator, single point] |
| O[C@H]1CCCC[C@H]1N1CCC(c2ccccc2)CC1 | inactive |
| COc1ccc(/C=C/c2cc(O)cc(O)c2)cc1 | inconclusive: 35.5 µM [activator, single point] |
| CCCCC/C=C\C/C=C\C/C=C\C/C=C\CCCC(=O)O | inactive and inconclusive: 35.5 µM [activator, single point] |
| O=C1NC(=O)N(CCc2ccc(F)cc2)C(=O)/C1=C/C=C/c1ccccc1 | inconclusive: 3.98 µM [activator, partial curve] |
| CCOCCCNC(=O)c1c(NC(=O)c2nc(SC)ncc2Cl)sc2c1CCCC2 | inconclusive: 31.6 µM [activator, single point] |
| CCCOc1ccc(N2C(=O)CC(N3CC=C(c4ccccc4)CC3)C2=O)cc1 (stereo unspecified) | inconclusive: 35.5 µM [activator, single point] |
| O=C1NC(=O)N(c2ccc(Br)cc2)C(=O)/C1=C/c1ccsc1 | inactive |
| O=c1cc(C(F)(F)F)c2cc3c4c(c2o1)CCCN4CCC3 | active: 7.08 µM |
| Nc1ccc2c3c(cccc13)CC2 | inconclusive: 28.2 µM [activator, single point] |
| COC(=O)c1c(C)n(Cc2ccccc2)c2ccc(O)cc12 | inactive |
| O=[N+]([O-])c1cccc(CN2CCN(Cc3ccc(Br)cc3)CC2)c1 | inactive |
| CC(C)CNC(=O)c1c(N)n(Cc2ccco2)c2nc3ccccc3nc12 | inactive |

| Compound | Potency |
| --- | --- |
| Oc1ccc2c3c1O[C@H]1c4oc5ccccc5c4C[C@]4(O)[C@H](C2)N(CC2CC2)CC[C@@]314 | inactive |
| O=c1cccc2n1CC1CC2CN(Cc2cccc(Cl)c2Cl)C1 (stereo unspecified) | inconclusive: 5.62 µM [activator, single point] |
| CCCC/C=C/[C@@H](NP(=O)(c1ccccc1)c1ccccc1)c1ccccc1OC | inconclusive: 15.8 µM [activator, single point] |
| CCOc1ccc(CNC(=O)c2cccc(Nc3nc4ccccc4n4nnnc34)c2)cc1OC | active: 20 µM |
| Nc1c(C(=O)NCc2ccco2)c2nc3ccccc3nc2n1Cc1ccccc1 | inconclusive: 22.4 µM [activator, single point] |
| O=C1NC(=O)N(Cc2ccc(F)cc2)C(=O)/C1=C\c1ccc(N2CCCC2)cc1 | inactive |
| CCCN1CCc2cccc3c2C1Cc1ccc(O)c(O)c1-3 (stereo unspecified) | inconclusive: 31.6 µM [activator, single point] |
| CCn1nc(-c2cccs2)nc2c(=O)n(C)c(=O)nc1-2 | inconclusive: 35.5 µM [activator, single point] |
| CCOC(=O)C1CCCN(c2ccc([N+](=O)[O-])c3nonc23)C1 (stereo unspecified) | inconclusive: 17.8 µM [activator, partial curve, poor fit] |
| CN1C(=O)C(=Cc2ccccc2OCCOc2ccc([N+](=O)[O-])cc2)C(=O)N(C)C1=O | inactive |
| Nc1c(C(=O)Nc2cccc(F)c2)sc2nc(-c3cccs3)ccc12 | inconclusive: 35.5 µM [activator, single point] |
| CC(=O)c1ccc(Oc2ccc(C(=O)c3ccc(C)c(C)c3)cc2[N+](=O)[O-])cc1 | inconclusive: 6.31 µM [activator, single point] |
| CCOc1ccc(CCNC(=O)c2ccc(-n3c(C)cc4c3CCCC4)cc2)cc1OCC | inconclusive: 31.6 µM [activator, single point] |
| C=C1C(O)C2OC3(CCC(/C=C/C(C)C4CC(C)=CC5(OC(CC(C)(O)C(=O)O)CCC5O)O4)O3)CCC2OC1C(O)CC(C)C1OC2(CCCCO2)CCC1C (stereo unspecified) | inconclusive: 1 µM [activator, single point] |
| Cc1ccc2oc(-c3ccc(Cl)cc3)c(O)c(=O)c2c1 | inconclusive: 31.6 µM [activator, single point] |
| Cc1oc2ccc(O)c(CN3CCCCCC3)c2c1C(=O)Nc1cccc(Cl)c1C | inconclusive: 28.2 µM [activator, single point] |
| O=C1NC(=O)N(Cc2ccco2)C(=O)/C1=C/C=C/c1ccco1 | inconclusive: 5.62 µM [activator, single point] |
| CCS(=O)(=O)N1N=C(c2cccc(NS(C)(=O)=O)c2)CC1c1ccccc1 (stereo unspecified) | inconclusive: 8.91 µM [activator, partial curve] |
| O=C1C=Cc2ccccc2C1=O | inconclusive: 5.62 µM [activator, single point] |
| CC1=C(O)C(=O)[C@H]2O[C@@H]2C1=O | inconclusive: 5.62 µM [activator, single point] |
| CCN(CC)c1ccc(N=Cc2c(O)n(Cc3ccco3)c(=O)[nH]c2=O)cc1 | inconclusive: 35.5 µM [activator, single point] |
| COc1cc(/C=C/C(=O)c2c(O)n(CCc3ccccc3)c(=O)[nH]c2=O)ccc1O | inconclusive: 35.5 µM [activator, single point] |

| Compound | Potency |
| --- | --- |
| O=C(Oc1cccc2cccnc12)c1ccccc1 | inconclusive: 17.8 µM [activator, single point] |
| CCN(CC)c1ccc(N=Cc2c(O)n(CCc3ccc(OC)c(OC)c3)c(=O)[nH]c2=O)cc1 | inconclusive: 3.98 µM [activator, full curve] |
| O=C1NC(=S)N(c2ccccc2F)C(=O)/C1=C\c1cccs1 | inconclusive: 35.5 µM [activator, single point] |
| CC(=O)O.CC(=O)O.[Cd] | inconclusive: 3.55 µM [activator, full curve] |
| COc1ccc2c(c1)NP(=S)(Oc1ccccc1)N2 (stereo unspecified) | inactive |
| CN(C)c1ccc(CNC(=O)Cn2c(=O)oc3cc(S(=O)(=O)N4CCCCCC4)ccc32)cc1 | inconclusive: 20 µM [activator, single point] |
| O=C(O)c1cc[c]([Hg][Cl])cc1 | inconclusive: 1.26 µM [activator, full curve] |
| CCc1ccc(N2C(=O)NC(=O)/C(=C/c3cccn3CCOc3ccc(C(C)CC)cc3)C2=O)cc1 (stereo unspecified) | inconclusive: 35.5 µM [activator, single point] |
| Cc1cc(/C=C2\C(=O)NC(=O)N(c3cccc(F)c3)C2=O)c(C)n1-c1cc(C(=O)O)cc(C(=O)O)c1 | inactive |
| CN1C(=O)C(=Cc2ccc(N3CCCCCC3)cc2)C(=O)N(C)C1=O | inactive |
| CN1CSC(=S)N(C)C1 | active: 8.91 µM |
| COC(=O)[C@@H]1[C@@H](C(=O)OC)C2(c3ccccc3-c3ccccc32)N(c2ccc(Cl)cc2)N1C#N | inconclusive: 5.62 µM [activator, single point] |
| C=CCN1C(=O)/C(=C\c2ccc(N3CCOCC3)o2)C(=O)NC1=S | inconclusive: 7.94 µM [activator, partial curve] |
| O=C(O)[C@@H]1CCN1 | inactive |
| CCOc1ccccc1NC(=O)c1sc2nc3c(cc2c1N)CN(Cc1ccccc1)CC3 | inconclusive: 15.8 µM [activator, single point] |
| N#CSCC(=O)N1c2ccccc2CCc2ccccc21 | inconclusive: 25.1 µM [activator, single point] |
| COc1cccc(N2C(=O)NC(=O)/C(=C\c3ccc([N+](=O)[O-])s3)C2=O)c1 | inconclusive: 6.31 µM [activator, single point] |
| Cc1ccc(/C=C2\C(=O)NC(=O)N(CCc3ccc(F)cc3)C2=O)o1 | inconclusive: 35.5 µM [activator, single point] |
| O=C1C(=O)c2cccc3cccc1c23 | inconclusive: 20 µM [activator, single point] |
| COC[C@H]1OC(=O)c2coc3c2[C@@]1(C)C1=C(C3=O)[C@H]2CCC(=O)[C@@]2(C)C[C@H]1OC(C)=O | inconclusive: 35.5 µM [activator, single point] |
| O=C(O)C(O)(c1ccccc1)C1CCCC1 (stereo unspecified) | inconclusive: 4.47 µM [activator, single point] |
| COc1ccc(C(=O)C2CCCN(Cc3ccccn3)C2)c(OC)c1 (stereo unspecified) | inactive |
